Among all 310,000 compounds or so, about 18,000 (5.8%) were called active. Inconclusive means that the source gave no clear call. Such entries were picked first, then a sample of the others. The call rests on the fitted dose curve; in most records, active means well fitted inhibition curve with a large enough effect; inconclusive means small, poorly fitted or top-dose-only effect, or another doubt; inactive means no such curve, though single readings can be large or run the other way. Potencies of inconclusive entries are left out as doubtful fits.
Experiment: Primary qHTS for delayed death inhibitors of the malarial parasite plastid, 48 hour incubation
Conditions: P. falciparum luciferase growth in erythrocytes; series mostly up to 28.7 µM
Procedure, shortened: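 In quantitative HTS format, infected erythrocytes bearing luciferase-reporter parasites were treated for a single generation at 37 C. Luminescence after adding detection reagent served as the growth measure.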
Potency means the concentration at half of the fitted maximal effect; tags describe the fitted curve by direction and shape.

SMILES	Potency
Cc1ccc2cc(CN(Cc3ccco3)C(=O)c3cccs3)c(=O)[nH]c2c1	inconclusive [inhibitor, single point]
Cn1cccc1/C=C1\SC(=Nc2ccc(O)cc2)NC1=O	inconclusive [inhibitor, partial curve]
COc1cc(/C=C(\C#N)C(=O)NCc2ccccc2)ccc1OCc1ccc(C(=O)O)cc1	active: 13.1 µM
Cc1ccnc(NC(=O)Nc2ccc(F)cc2)c1	inactive
COC(=O)c1sccc1NC(=O)NC1CCCCC1	inactive
Nc1[nH]n2c(=O)c3c(nc2c1N=Nc1ccccc1)CCCC3	inactive
Cc1ccc(Nc2nc(Cl)nc(NC3CCCCC3)n2)cc1	inactive
CC(=O)Nc1ccc(S(=O)(=O)NC(CSc2ccc(C(=O)O)cc2[N+](=O)[O-])C(=O)O)cc1 (stereo not drawn)	inactive
CCOC(=O)c1[nH]c2ccc(C)cc2c1N	inactive
CCN(CC)C(=O)c1[nH]cnc1C(=O)NC1CCN(C(=O)OC(C)(C)C)CC1	inconclusive [inhibitor, single point]
CCOC(=O)CSc1ncccn1	inactive
COc1ccc(-c2nnn(CC(=O)c3c[nH]c4ccccc34)n2)cc1OC	inconclusive [inhibitor, single point]
COc1cc(CNCCO)cc(Br)c1OCc1ccccc1	inconclusive [inhibitor, single point]
CCOc1ccccc1C(=O)N[C@H](C(=O)Nc1nc2c(s1)CCCC2)C(C)C	inconclusive [inhibitor, partial curve]
COc1ccccc1NC(=O)c1ccc(-c2ccccc2[N+](=O)[O-])o1	inactive
O=C(c1ccccc1-c1ncc[nH]1)N1CCc2c([nH]c3ccccc23)C1c1ccccn1 (stereo not drawn)	active: 11.7 µM
O=C(O)CC/C(=N/NC(=O)CNC(=O)c1ccc2c(c1)OCCO2)c1ccccc1	inactive
O=C1Cn2c(nc3ccccc32)-c2ccccc2N1	inactive
Cc1ccc(C(C)NC(=O)c2ccncc2)c(C)c1 (stereo not drawn)	inactive
CCc1ccc(NC(=O)CC2C(=O)N(c3ccc(OC)cc3)C(=O)N2CCOC)cc1 (stereo not drawn)	inconclusive [inhibitor, partial curve, poor fit]
COc1cccc(CNC(=O)CN2C(=O)CSc3ccc(S(=O)(=O)N4CCCC4)cc32)c1	inconclusive [inhibitor, partial curve, poor fit]
O=C(CSc1nc2ccccc2s1)N1c2ccccc2Sc2ccccc21	inconclusive [inhibitor, partial curve, poor fit]
CCN1CCc2c(C#N)c(NCc3ccccc3)nc(N(CC)CC)c2C1	active: 2.62 µM
CCC1(c2ccccc2)CCC(=O)NC1=O (stereo not drawn)	active: 19 µM
CCc1ccccc1N(C(C)=O)c1nc(CCl)cs1	inconclusive [inhibitor, single point]

SMILES	Potency
CCOC(=O)C1(CCOc2ccccc2)CCN(Cc2cccc(-n3cccn3)c2)CC1	inconclusive [inhibitor, single point]
Cc1cccc(NC(=O)C2CCN(S(=O)(=O)c3ccc4ccccc4c3)CC2)n1	inconclusive [inhibitor, single point]
CCCOC(=O)c1cc(-c2ccc(C=O)o2)ccc1Cl	inactive
CN(CC(=O)Nc1c(Cl)cccc1Cl)C(=O)c1cccn1C	inactive
CCOc1ccc(NC(=O)CN(C)C(=O)c2ccccc2OCc2cccc(C)c2)cc1OCC	inconclusive [inhibitor, partial curve, poor fit]
CCOC(=O)c1c(NC(=O)C(c2ccccc2)c2ccccc2)sc2c1C1CCN2CC1	active: 2.08 µM
Cn1nnc(NCc2cc(Br)ccc2OCc2ccccc2F)n1	inconclusive [inhibitor, single point]
Cn1c(NC(=O)C[n+]2cc(-c3ccc(F)cc3)n3c2CCC3)cc(=O)n(C)c1=O	active: 3.7 µM
C=CCn1c(SC(C)C(=O)NCc2ccc3c(c2)OCO3)nc2scc(-c3ccccc3)c2c1=O (stereo not drawn)	inconclusive [inhibitor, partial curve]
COc1ccc(NC2=NCC(=O)N2Cc2cccs2)cc1	inactive
O=C1/C(=C\c2ccccc2)SC(=S)N1CCC(=O)N1CCCCC1CCO (stereo not drawn)	inconclusive [inhibitor, single point]
CCOC(=O)[C@H]1[C@H]2COc3ccc(C)cc3[C@@H]2N2C(=O)CN(Cc3ccccc3)C(=O)[C@@]12C	inconclusive [inhibitor, partial curve, poor fit]
O=C(Cn1cnnn1)Nc1cccc([N+](=O)[O-])c1	inactive
COc1ccc(CCN2CC(C(=O)NCCc3ccccn3)CCC2=O)cc1 (stereo not drawn)	inactive
CC(NC(=O)COC(=O)c1ccccc1Nc1ccccc1)c1ccccc1 (stereo not drawn)	inconclusive [inhibitor, partial curve]
Cc1ccc2cc(CCNS(=O)(=O)c3ccc(F)cc3)c(=O)[nH]c2c1C	inconclusive [inhibitor, full curve, poor fit]
N#CC1=C(N)Oc2cc(N)ccc2C1c1cccc(Br)c1 (stereo not drawn)	inactive
COc1ccc(CCNc2ncnc3c2oc2ccccc23)cc1OC	inconclusive [inhibitor, partial curve, poor fit]
CCOc1cccc(/C=C/C(=O)O)c1	inconclusive [inhibitor, single point]
CC(=O)Nc1c2c3c(cccc3n(C)c1=O)C(=O)c1ccccc1-2	inconclusive [inhibitor, full curve, poor fit]
COc1ccc(S(=O)(=O)N2CCC(C(=O)NC3CC3)CC2)cc1Cl	inconclusive [inhibitor, single point]
Cc1cc(NC(=O)CSc2nnnn2-c2cc(Cl)ccc2C)no1	inconclusive [inhibitor, single point]
CN1C(=O)C2(c3ccccc31)c1c(oc3ccccc3c1=O)C(=O)N2CCCO (stereo not drawn)	inactive
O=C(NCC(=O)N1CCN(c2ccc(C(F)(F)F)cn2)CC1)c1ccc(Br)o1	inconclusive [inhibitor, single point]
COc1ccccc1NS(=O)(=O)c1cccc(C(=O)N2CC(C)OC(C)C2)c1 (stereo not drawn)	inconclusive [inhibitor, full curve, poor fit]

SMILES	Potency
CCS(=O)(=O)N1Cc2ccccc2CC1C(=O)Nc1nnc(C2CC2)s1 (stereo not drawn)	inconclusive [inhibitor, single point]
Cc1cc(C(=O)CN2C(=O)NC(c3ccccc3)(c3ccccc3)C2=O)c(C)n1Cc1ccccc1	inconclusive [inhibitor, partial curve]
Cc1ccccc1Cn1c(=O)sc2ccccc2c1=O	inconclusive [inhibitor, single point]
CN(CC(=O)Nc1c(Cl)cccc1Cl)C(=O)CCc1nc2sc3c(c2c(=O)[nH]1)CCCC3	inconclusive [inhibitor, single point]
COc1ccccc1NS(=O)(=O)c1cccc(C(=O)NCc2ccncc2)c1	inactive
Cc1nc(N2CCN(C(=O)CCC(=O)O)CC2)c2c(C)c(C)sc2n1	inactive
COc1ccc2cnn(CCOc3cc(C)ccc3C(C)C)c(=O)c2c1OC	inconclusive [inhibitor, partial curve]
COc1ccccc1C(=O)Nc1ccc(CN2CCCCC2)cc1	inactive
CCCCCCCC1CC(=O)C=C(C)C1C(=O)OCC (stereo not drawn)	inconclusive [inhibitor, partial curve, poor fit]
COC(=O)C1=C(c2ccc(OC(F)(F)F)cc2)C[C@@H]2CC[C@H]1N2C(=O)NCCOc1ccccc1	active: 11.7 µM
C=CCOc1ccccc1CN1CCN(CCc2ccccc2)C(CCO)C1 (stereo not drawn)	inconclusive [inhibitor, single point]
O=C(Cn1ncc(N2CCCC2)c(Br)c1=O)c1ccc(Cl)cc1	inactive
O=C(O)CCC(=O)Nc1cc(C(F)(F)F)cc(C(F)(F)F)c1	inconclusive [inhibitor, single point]
CCCCCCCC[n+]1c(C)n(-c2ccccc2)c2ccc(NC(C)=O)cc21	inconclusive [inhibitor, full curve]
C[N+]1=C(/C=C/Nc2ccccc2Cl)C(C)(C)c2ccccc21	active: 11.7 µM
CC[n+]1c(/C=C/N(C)c2ccccc2)oc2ccc(Cl)cc21	active: 4.65 µM
Cc1cc(C)c(C)c(S(=O)(=O)N2CCC(C(=O)NCCCN3CCCC3=O)CC2)c1C	inconclusive [inhibitor, single point]
CCCn1c(/C=C/c2cc[n+](C)cc2)nc2ccccc21	inconclusive [inhibitor, full curve, poor fit]
CC1=NN(C(=O)COc2cc(C)ccc2C(C)C)C(O)(c2ccccc2)C1 (stereo not drawn)	inconclusive [inhibitor, single point]
CC[C@H](C)Cc1cn([C@@H](CCCCN)C(=O)NCCCCCCCCCCC(=O)N2CCNCC2)nn1	active: 11.7 µM
CC(C)Cc1nc(N2CCNCC2)c(C#N)c2c1CCC2	inconclusive [inhibitor, single point]
CN(C)C1=NCCN1CCC1CCCCC1	inconclusive [inhibitor, single point]
O=C1OCCN1c1c(-c2ccccc2)c(-c2cccs2)nc2c(-c3ccccc3)cccc12	inconclusive [inhibitor, single point]
